# From PubChem BioAssay AID1963576 (National Center for Advancing Translational Sciences (NCATS), 2024)
# Screen size: about 46,000 compounds; about 60 (0.1%) were called active. Roughly 3% stayed inconclusive and do not appear here. Calls come from the whole dose curve; as a rule, active = well fitted inhibition curve with a large enough effect; inconclusive = small, poorly fitted or top-dose-only effect; inactive = no such curve, though single readings can be large or run the other way. The list shows a part of the results.
# Assay: Primary qHTS assay for Inhibitors of ovarian cancer metastasis using an organotypic tumor microenvironment (TME) model.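 For activity change, negative = inhibition: plate controls were DMSO wells for no effect and tomatine positive control wells for full effect.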 Note: nearly all actives have a fitted effect of over 65% in size.
# Settings: SKOV3ip1-GFP adhesion/invasion on 3D omental model, fluorescence; series mostly up to 45.8 µM; activity change, negative = inhibition: at the top concentration
# Procedure, shortened: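 Adhesion/invasion was scored as fixed GFP-labeled SKOV3ip1 cell counts (488/509 nm), normalized to DMSO and tomatine controls. Cancer cells in serum-free medium, with four compound doses (0.36-46 umol/L), sat 2 hr at RT then 16 hr at 37 C on a 48 hr fibroblast/mesothelial/ECM culture.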
SMILES,"activity change, negative = inhibition",outcome
COc1ccc(NC(=O)CSc2nc3nc(C)cc(C)n3n2)cc1OC,inactive: -0.713%,–
O=C(Nc1cccc(F)c1)C1CCN(S(=O)(=O)c2ccc3[nH]c4c(c3c2)CCCCC4)CC1,–,inactive
CCc1ccc(S(=O)(=O)Nc2cccc(-c3ccc(OC)nn3)c2)s1,inactive: 9.11%,–
Cc1cccc2c(=O)cc(CSc3ccccc3NC(=O)c3cccc(Br)c3)[nH]c12,inactive: -5.17%,–
O=C(CSc1ncc(CO)n1Cc1ccc(F)cc1)NCc1ccco1,–,inactive
CCC1CCCCN1CCCNC(=O)c1c(C)oc2ncn(CC(C)C)c(=O)c12 (stereo unspecified),inactive: -6.07%,–
COc1cccc(NC(=O)c2sc3nc(C)c(C(=O)Nc4ccc(C)cc4C)c(-c4ccc(C)o4)c3c2N)c1,inactive: -22.2%,–
O=c1n(Cc2ccc(Cl)cc2)nc2n1-c1ccccc1OC2,–,inactive
Cc1ccc(N2CC(C(=O)NCc3nnnn3-c3ccc(C)c(C)c3)CC2=O)cc1C (stereo unspecified),–,inactive
CC(C)c1ccc2oc(-c3cc(NC(=O)c4cccnc4)ccc3Cl)nc2c1,inactive: -9.29%,–
COc1cccc2c1cc1c(=O)n(CC(=O)NCc3ccc(N(C)C)cc3)nc(C)n12,inactive: -1.13%,–
CCOc1ccccc1NC(=O)NCc1noc2ccc(C)cc12,inactive: -14.2%,–
CN(C(=O)CSc1nc2ccc(NC(=O)CCc3ccccc3)cc2s1)c1ccccc1,inactive: -27.2%,–
Cc1ccc(-c2nnc(Nc3ccc(S(N)(=O)=O)cc3)c3ccccc23)cc1S(=O)(=O)N1CCOCC1,–,inactive
CCc1ccccc1NC(=O)C(=O)NCC(c1cccnc1)N1CCc2ccccc21 (stereo unspecified),–,inactive
CCOc1ccc(-c2cc(C(=O)N3CCN(c4cccc(C)c4)C(C)C3)c3ccccc3n2)cc1 (stereo unspecified),inactive: -27.9%,–
Cc1ccc(C)c(N2CCN(C(=O)CCCCCn3c(=O)[nH]c4ccccc4c3=O)CC2)c1,inactive: -6.65%,–
Cc1ccc(C)c(Cn2c(SCC(=O)N(C)Cc3ccccc3)nc3ccccc32)c1,inactive: 6.09%,–
Cc1ccccc1OCC(=O)Nc1ccc2nc(SCCOc3ccccc3)sc2c1,inactive: 0.842%,–
O=C(CSc1nc2ccccc2nc1Cc1ccc(Cl)cc1)N1CCN(c2ccccc2F)CC1,inactive: 9.1%,–
CCOC(=O)c1ccc(NC(=O)C2CC(=O)N(c3ccc(C(C)C)cc3)C2)cc1 (stereo unspecified),inactive: 4.93%,–

SMILES,"activity change, negative = inhibition",outcome
COc1ccc(C(=O)Nc2ccc3oc(-c4ccc(OC)cc4)nc3c2)cc1,inactive: -27%,–
CCc1cccc(NC(c2nnc(-c3ccccc3)o2)c2ccc(F)cc2Cl)c1 (stereo unspecified),inactive: 4.7%,–
Cc1ccc(NC(=O)NCC2CCN(Cc3cccc(Cl)c3)CC2)cc1Cl,–,inactive
CCCC(=O)Nc1cc(-c2nc3cccnc3s2)ccc1C,inactive: 13.6%,–
COc1ccc2c(c1)Cc1sc(NC(=O)c3cccc(F)c3)nc1-2,inactive: 22.9%,–
CC(NC(=O)c1cccc(NC(=O)c2nsc3ccccc23)c1)c1ccccc1 (stereo unspecified),inactive: -0.355%,–
CCN1c2ccccc2-c2nc(SCC(=O)Nc3c(C)cc(C)cc3C)ncc2S1(=O)=O,inactive: -26.5%,–
COc1cccc(-n2c(-c3ccco3)nc3c(cnn3-c3ccc(C)cc3)c2=O)c1,inactive: 0.974%,–
Cc1ccc(C(=O)CSc2nnc(-c3ccccc3)n2-c2ccccc2)cc1,inactive: 8.01%,–
CCOc1ccc(C(=O)c2cn(Cc3ccc(OC)cc3)c3cc(OC)c(OC)cc3c2=O)cc1,inactive: 0.355%,–
CCOc1ccc(NS(=O)(=O)c2ccc3[nH]cc(C(=O)NC4CCCC4)c(=O)c3c2)cc1,inactive: 5.37%,–
CC(=O)Nc1ccc(S(=O)(=O)NC2(C(F)(F)F)C(=O)Nc3c2c(=O)[nH]c(=O)n3-c2ccc(C)c(C)c2)cc1 (stereo unspecified),inactive: 0.709%,–
Cc1cccc(NC(=O)CCNS(=O)(=O)c2cccc3nonc23)c1,–,inactive
Cc1noc(Cn2c(=O)c3ccccc3n(CC(=O)Nc3ccc(Cl)cc3)c2=O)n1,inactive: -2.04%,–
O=C(Nc1cc(Cl)ccc1Cl)C1(c2cccs2)CCOCC1,–,inactive
CC1=C(C(=O)NCc2ccc(C)cc2)C2(CCCCC2)OC1=O,inactive: 4.04%,–
Cc1ccc2cccc(NC(=O)C(C)Oc3ccc(C)c(C)c3)c2n1 (stereo unspecified),inactive: 0.756%,–
CCOc1ccc(NC(=O)CSc2ncc3c(n2)-c2cc(Cl)ccc2N(C)S3(=O)=O)cc1,inactive: -6.01%,–
O=C(O)c1cc(O)c2c(c1)C(=O)c1cccc(O)c1C2=O,inactive: 12.5% [at 92.2 µM],–
COc1ccc(NC(=O)CCNS(=O)(=O)c2cccc3nonc23)c(OC)c1,inactive: -5.05%,–
CC(=O)N1CCCc2cc(S(=O)(=O)N3CCCC(C(=O)Nc4cccc(F)c4)C3)ccc21 (stereo unspecified),inactive: 11.9%,–

SMILES,"activity change, negative = inhibition",outcome
O=c1c2cc3c(cc2n(Cc2cccc(Cl)c2)c(=O)n1Cc1nc(-c2ccccc2)no1)OCO3,inactive: 15.8%,–
COc1ccc(N2CCN(C(=O)c3ccc(Nc4nc5ccccc5n5nnnc45)cc3)CC2)cc1,inactive: -12.5%,–
COc1ccc(Nc2ncc(C(=O)Nc3cc(Cl)c(OC)cc3OC)c3ccccc23)cc1,–,inactive
O=C(Nc1ncc(Cc2ccc(Cl)cc2)s1)c1ccc2c(c1)CC(c1ccccc1)OC2=O (stereo unspecified),inactive: 1.51%,–
NC(=NCc1ccccc1)NC(=O)c1nc(Cl)c(N)nc1N,inactive: 10.6%,–
COc1cccc(C2CC(=O)Nc3c2c(=O)nc2c(C)cccn32)c1 (stereo unspecified),inactive: 8.01%,–
CCOC(=O)CNC(=O)c1cc2c(=O)n3cccc(C)c3nc2s1,–,inactive
CCCn1c2ccccc2c2cnn(CC(=O)NCCc3ccc(OCC)c(OCC)c3)c(=O)c21,inactive: -8.69%,–
Cc1ccc(NC(=O)CCNS(=O)(=O)c2ccc3c(c2)CCN3C(=O)C2CC2)c(Cl)c1,inactive: 5.14%,–
COc1cccc(CNC(=O)CSc2nc3ccccc3nc2Cc2ccc(C)cc2)c1OC,inactive: -0.153%,–
CCCCNC(=O)CCn1c(=O)c2cccn2c2ccc(F)cc21,inactive: 20.4%,–
CCOc1ccccc1NC(=O)CSc1ncc(S(=O)(=O)c2ccc(C(C)(C)C)cc2)c(=O)[nH]1,–,inactive
COc1ccccc1N(CC(=O)N1CCC(C)CC1)S(=O)(=O)c1ccc(C)cc1,inactive: 84.1%,–
CCN(C(=O)Cn1nc(Cc2ccncc2)c2ccccc2c1=O)c1cccc(Cl)c1,inactive: 2.13%,–
COc1ccc(CCNC(=O)CN2C(=O)COc3ccc(C)cc32)cc1OC,inactive: -2.12%,–
CCOC(=O)c1cc(-c2ccc(OC)c(S(=O)(=O)NC3CCCCC3)c2)on1,inactive: -17.8%,–
CCCCN(CC)CCCNC(=O)CN1C(=O)CSc2ccc(S(=O)(=O)N3CCOCC3)cc21,inactive: -26.9%,–
COCCNC(=O)c1ccc(-n2c(-c3ccccc3)cc3c2CCC(C)C3)cc1 (stereo unspecified),–,inactive
Cc1ccc(C(=O)NCc2ccc3c(c2)CCN3C(=O)c2ccc(C)cc2)cc1,–,inactive
